This is one part of the list.
Tests used:
Test in all cases: glycan array binding signal (z-score within array); higher = stronger binding
Conditions in all cases: glycan notation: IUPAC condensed, linker removed
Gal6S(b1-4)Glc6S = molecular target: Gal6S(b1-4)Glc6S
Procedure, shortened: (§1)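 Glycan array data were curated from 3228 arrays in the Consortium for Functional Glycomics database and kept only where the protein sequence was available. Glycan names were converted to IUPAC-condensed notation, and columns mapping to the same glycan were averaged. The binding signal is a within-array Z-score, averaged across arrays of the same protein sequence at different concentrations or buffers and across linkers. Negative Z-scores can be read as non-binding.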

Gal6S(b1-4)GlcNAc = molecular target: Gal6S(b1-4)GlcNAc
Procedure, shortened: as §1

Gal6S(b1-4)GlcNAc6S = molecular target: Gal6S(b1-4)GlcNAc6S
Procedure, shortened: as §1

GalNAc(a1-3)Gal = molecular target: GalNAc(a1-3)Gal
Procedure, shortened: as §1

GalNAc(a1-3)GalNAc = molecular target: GalNAc(a1-3)GalNAc
Procedure, shortened: as §1

[1] = molecular target: GalNAc(a1-3)GalNAc(a1-3)Gal(a1-4)Gal(b1-4)GlcNAc
Procedure, shortened: as §1

[2] = molecular target: GalNAc(a1-3)GalNAc(b1-3)Gal(a1-4)Gal(b1-4)Glc
Procedure, shortened: as §1

GalNAc(b1-3)Gal = molecular target: GalNAc(b1-3)Gal
Procedure, shortened: as §1

[3] = molecular target: GalNAc(b1-3)Gal(a1-4)Gal(b1-4)GlcNAc
Procedure, shortened: as §1

[4] = molecular target: GalNAc(b1-3)Gal(a1-4)Gal(b1-4)GlcNAc(b1-3)Gal(b1-4)Glc
Procedure, shortened: as §1

[5] = molecular target: GalNAc(b1-3)Gal(a1-6)Gal(b1-4)Glc
Procedure, shortened: as §1

GalNAc(b1-3)GalNAc = molecular target: GalNAc(b1-3)GalNAc
Procedure, shortened: as §1

GalNAc(b1-3)GlcNAc = molecular target: GalNAc(b1-3)GlcNAc
Procedure, shortened: as §1

GalNAc(b1-4)Gal(b1-4)Glc = molecular target: GalNAc(b1-4)Gal(b1-4)Glc
Procedure, shortened: as §1

GalNAc(b1-4)GlcNAc = molecular target: GalNAc(b1-4)GlcNAc
Procedure, shortened: as §1

[6] = molecular target: GalNAc(b1-4)GlcNAc(b1-2)Man
Procedure, shortened: as §1

[7] = molecular target: GalNAc(b1-4)GlcNAc(b1-2)Man(a1-3)[GalNAc(b1-4)GlcNAc(b1-2)Man(a1-6)]Man(b1-4)GlcNAc(b1-4)GlcNAc
Procedure, shortened: as §1

[8] = molecular target: GalNAc(b1-4)GlcNAc(b1-3)GalNAc(b1-4)GlcNAc
Procedure, shortened: as §1

GalNAc(b1-4)GlcNAc6S = molecular target: GalNAc(b1-4)GlcNAc6S
Procedure, shortened: as §1

GalNAc(b1-6)GalNAc = molecular target: GalNAc(b1-6)GalNAc
Procedure, shortened: as §1

GalNAc3S(b1-4)GlcNAc = molecular target: GalNAc3S(b1-4)GlcNAc
Procedure, shortened: as §1

GalNAc3S(b1-4)GlcNAc3S = molecular target: GalNAc3S(b1-4)GlcNAc3S
Procedure, shortened: as §1

[9] = molecular target: GalNAc3S(b1-4)[Fuc(a1-3)]GlcNAc
Procedure, shortened: as §1

GalNAc4S6S(b1-4)GlcNAc = molecular target: GalNAc4S6S(b1-4)GlcNAc
Procedure, shortened: as §1

GalNAc6S(b1-4)GlcNAc = molecular target: GalNAc6S(b1-4)GlcNAc
Procedure, shortened: as §1

Glc(a1-4)Glc = molecular target: Glc(a1-4)Glc
Procedure, shortened: as §1

[10] = molecular target: Glc(a1-4)Glc(a1-4)Glc(a1-4)Glc
Procedure, shortened: as §1

Glc(a1-6)Glc(a1-6)Glc = molecular target: Glc(a1-6)Glc(a1-6)Glc
Procedure, shortened: as §1

[11] = molecular target: Glc(a1-6)Glc(a1-6)Glc(a1-6)Glc
Procedure, shortened: as §1

Glc(b1-4)Glc = molecular target: Glc(b1-4)Glc
Procedure, shortened: as §1

Glc(b1-6)Glc = molecular target: Glc(b1-6)Glc
Procedure, shortened: as §1

GlcA(b1-3)Gal = molecular target: GlcA(b1-3)Gal
Procedure, shortened: as §1

GlcA(b1-3)GlcNAc = molecular target: GlcA(b1-3)GlcNAc
Procedure, shortened: as §1

GlcA(b1-6)Gal = molecular target: GlcA(b1-6)Gal
Procedure, shortened: as §1

[12] = molecular target: GlcA3S(b1-3)Gal(b1-4)GlcNAc(b1-2)Man
Procedure, shortened: as §1

[13] = molecular target: GlcA3S(b1-3)Gal(b1-4)GlcNAc(b1-3)Gal(b1-4)Glc
Procedure, shortened: as §1

[14] = molecular target: GlcNAc(a1-3)Gal(b1-4)GlcNAc
Procedure, shortened: as §1

B1: mCC1-Hexahis-Precomplexed (Mus musculus), P31809 (protein)
chain: MELASAHLHKGQVPWGGLLLTASLLASWSPATTAEVTIEAVPPQVAEDNNVLLLVHNLPLALGAFAWYKGNTTAIDKEIARFVPNSNMNFTGQAYSGREIIYSNGSLLFQMITMKDMGVYTLDMTDENYRRTQATVRFHVHPILLKPNITSNNSNPVEGDDSVSLTCDSYTDPDNINYLWSRNGESLSEGDRLKLSEGNRTLTLLNVTRNDTGPYVCETRNPVSVNRSDPFSLNIIYGPDTPIISPSDIYLHPGSNLNLSCHAASNPPAQYFWLINEKPHASSQELFIPNITTNNSGTYTCFVNNSVTGLSRTTVKNITVLEPVTQPFLQVTNTTVKELDSVTLTCLSNDIGANIQWLFNSQSLQLTERMTLSQNNSILRIDPIKREDAGEYQCEISNPVSVRRSNSIKLDIIFDPTQGGLSDGHHHHHH
With B1 the “glycan array binding signal (z-score)” value (Gal6S(b1-4)Glc6S) was -0.18, the “glycan array binding signal (z-score)” value (Gal6S(b1-4)GlcNAc) was -0.076 and the “glycan array binding signal (z-score)” value (Gal6S(b1-4)GlcNAc6S) was -0.246. The “glycan array binding signal (z-score)” value (GalNAc(a1-3)Gal) was -0.254, the “glycan array binding signal (z-score)” value (GalNAc(a1-3)GalNAc) was -0.085 and the “glycan array binding signal (z-score)” value [1] was -0.267. The “glycan array binding signal (z-score)” value [2] was -0.182, the “glycan array binding signal (z-score)” value (GalNAc(b1-3)Gal) was -0.208 and the “glycan array binding signal (z-score)” value [3] was -0.194. For the same binder, the “glycan array binding signal (z-score)” value [4] was -0.269, the “glycan array binding signal (z-score)” value [5] was -0.095 and the “glycan array binding signal (z-score)” value (GalNAc(b1-3)GalNAc) was -0.247. For the same binder, the “glycan array binding signal (z-score)” value (GalNAc(b1-3)GlcNAc) was -0.3, the “glycan array binding signal (z-score)” value (GalNAc(b1-4)Gal(b1-4)Glc) was 0.008 and the “glycan array binding signal (z-score)” value (GalNAc(b1-4)GlcNAc) was -0.264. The “glycan array binding signal (z-score)” value [6] was -0.241, the “glycan array binding signal (z-score)” value [7] was 0.224 and the “glycan array binding signal (z-score)” value [8] was -0.295. For the same binder, the “glycan array binding signal (z-score)” value (GalNAc(b1-4)GlcNAc6S) was -0.282, the “glycan array binding signal (z-score)” value (GalNAc(b1-6)GalNAc) was -0.226 and the “glycan array binding signal (z-score)” value (GalNAc3S(b1-4)GlcNAc) was -0.254. For the same binder, the “glycan array binding signal (z-score)” value (GalNAc3S(b1-4)GlcNAc3S) was -0.065, the “glycan array binding signal (z-score)” value [9] was -0.25 and the “glycan array binding signal (z-score)” value (GalNAc4S6S(b1-4)GlcNAc) was -0.07. The “glycan array binding signal (z-score)” value (GalNAc6S(b1-4)GlcNAc) was -0.292, the “glycan array binding signal (z-score)” value (Glc(a1-4)Glc) was -0.185 and the “glycan array binding signal (z-score)” value [10] was 0. For the same binder, the “glycan array binding signal (z-score)” value (Glc(a1-6)Glc(a1-6)Glc) was -0.192, the “glycan array binding signal (z-score)” value [11] was -0.077 and the “glycan array binding signal (z-score)” value (Glc(b1-4)Glc) was -0.182. The “glycan array binding signal (z-score)” value (Glc(b1-6)Glc) was -0.254, the “glycan array binding signal (z-score)” value (GlcA(b1-3)Gal) was -0.174 and the “glycan array binding signal (z-score)” value (GlcA(b1-3)GlcNAc) was -0.289. The “glycan array binding signal (z-score)” value (GlcA(b1-6)Gal) was -0.12, the “glycan array binding signal (z-score)” value [12] was -0.001 and the “glycan array binding signal (z-score)” value [13] was -0.235. For the same binder, the “glycan array binding signal (z-score)” value [14] was -0.183.

From the supplement of paper PMC8728848
